From publication PMC7819943, “Rice protein-binding microarrays: a tool to detect cis-acting elements near promoter regions in rice”
This is one part of the list.

biological target: T1, OsWOX13 (Oryza sativa, UniProt Q5QMM3 1-267); assay: protein-binding microarray (RPBM); PBS, 2% BSA, 51.3 ng/ul salmon testes DNA, 50 uM zinc acetate, 200 nM TF, 25 C, 1 h; high values mean tight binding; details: protein: recombinant; tags: N-terminal polyhistidine and DsRed monomer fusion (pET32a); label: CyDye5-dUTP incorporated in the synthesized complementary strand; 3' TTTTT single-stranded linker to array surface; dsDNA, one strand shown
T1 sequence: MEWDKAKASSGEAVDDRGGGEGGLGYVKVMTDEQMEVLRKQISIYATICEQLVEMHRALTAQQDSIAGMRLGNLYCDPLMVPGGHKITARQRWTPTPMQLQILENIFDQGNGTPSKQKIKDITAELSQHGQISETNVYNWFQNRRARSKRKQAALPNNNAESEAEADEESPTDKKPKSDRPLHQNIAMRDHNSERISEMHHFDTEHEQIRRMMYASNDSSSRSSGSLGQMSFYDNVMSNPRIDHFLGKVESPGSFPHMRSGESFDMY
Outline: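 Binding signal is defined as the fluorescence intensity of each feature in arbitrary units, read on an Axon 4000B scanner. Transcription factors with N-terminal polyhistidine and DsRed fusions came from E. coli BL21-CodonPlus and were purified on Ni–NTA. They were incubated at 200 nM for 1 h at 25 °C on a custom Agilent array that had been made double-stranded with Cy5-dUTP, with 50 µM zinc acetate present, and the array was washed.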

Sequence	binding signal
TAATAATTAATTAGTTAGTGGAACTAATCGGCAGTTGGCCCGGAGTCACCTAGTGCAG	31400 fluorescence intensity (a.u.)
GTTGGTCTAGCTTGATTAGCTGGCAGCAAATTCAGAGTTGCGGAGTCACCTAGTGCAG	6290 fluorescence intensity (a.u.)
GTCATCAATCCGCGCCTCCTCCCGTGATCTCAATCCCAACCGGAGTCACCTAGTGCAG	4120 fluorescence intensity (a.u.)
TTAAAACTGAAATTATCGTATGTGCCTTGTCGCCGTGATTCGGAGTCACCTAGTGCAG	7510 fluorescence intensity (a.u.)
AATAATATAATAGATTATTCTGTCCTCTCAGTGGTCCAAACGGAGTCACCTAGTGCAG	22900 fluorescence intensity (a.u.)
ATTACAGATGTAATTTTAGTCTATTTATTTACAATGTAAGCGGAGTCACCTAGTGCAG	16400 fluorescence intensity (a.u.)
GCGGTTAATTATTGAACATCATGCGTAAGTCATGCAACTTCGGAGTCACCTAGTGCAG	20600 fluorescence intensity (a.u.)
CCAGTCACGTTCAATCTTTTGTCCATTGGACAAAAGCACGCGGAGTCACCTAGTGCAG	3370 fluorescence intensity (a.u.)
CACCAAATCCGGTAATTGACCAGCTCGAACAGTCCTGTGCCGGAGTCACCTAGTGCAG	23200 fluorescence intensity (a.u.)
TCTGACAAACTGAATGTGAAGATGCAAAGCTTTTACAGGTCGGAGTCACCTAGTGCAG	7420 fluorescence intensity (a.u.)
GCTAAACTGGCACCTATAATGCTTTTCCCTCCTCCGTAGACGGAGTCACCTAGTGCAG	11000 fluorescence intensity (a.u.)
GTTGATTCAAATTAGACCGTTTGGAAGTAGCCCTGTTCGACGGAGTCACCTAGTGCAG	22500 fluorescence intensity (a.u.)
CATAAATTGTTGTTGTTTGTTACTAGAAGTTGTTTGGAAGCGGAGTCACCTAGTGCAG	16800 fluorescence intensity (a.u.)
CACCTAATGAAATTAGCTGTAGCACTTTGTTGGATGGTTTCGGAGTCACCTAGTGCAG	7290 fluorescence intensity (a.u.)
TTTAACTCAAGTATATTAATTAATCCATAGAAATCCTCTCCGGAGTCACCTAGTGCAG	6780 fluorescence intensity (a.u.)
TTTAAATAATCAAATAAATCAAAACAAAATAGATGATAACCGGAGTCACCTAGTGCAG	8520 fluorescence intensity (a.u.)
ATATTAATGGGCAAGTATTTTAATTGTTTGCATTTTATACCGGAGTCACCTAGTGCAG	4240 fluorescence intensity (a.u.)
GATCAATTTAAAATGAAAACACTAGTTTACCGTCTTCTTTCGGAGTCACCTAGTGCAG	6270 fluorescence intensity (a.u.)
CTTCTAATGGTCCATGATTTGGCTAAAGCATCAATTCTACCGGAGTCACCTAGTGCAG	3710 fluorescence intensity (a.u.)
TTGCTTAATTAATTATTAATGTAAGAAGGGTCTAACATTTCGGAGTCACCTAGTGCAG	34300 fluorescence intensity (a.u.)
TGGTGGTGGTGGTGGCTGTAGTGTGGAGGTGGTGGGGAGTCGGAGTCACCTAGTGCAG	10000 fluorescence intensity (a.u.)

Sequence	binding signal
AATTAGTAAATACTTAATTAATCATGAGAAAATGTATTGCCGGAGTCACCTAGTGCAG	3350 fluorescence intensity (a.u.)
TATGATTATCACAAGTAATATATAAATTATTAGTCAAGTTCGGAGTCACCTAGTGCAG	33600 fluorescence intensity (a.u.)
GCCTTGGTGATTGATCGGAAGAAGGAAATGCAGGTGAGCACGGAGTCACCTAGTGCAG	37900 fluorescence intensity (a.u.)
ATCTAAACAATTATTATACATTGTATTGTGCTTGTTAGGACGGAGTCACCTAGTGCAG	3620 fluorescence intensity (a.u.)
ATATTAATTAAGGGATGGAATGGTGTACTTACTACAATAACGGAGTCACCTAGTGCAG	17300 fluorescence intensity (a.u.)
GTTACAGTGTAATTACATGCAAGTTACAGTGTAATTACACCGGAGTCACCTAGTGCAG	7940 fluorescence intensity (a.u.)
ATAGATCATTTATATGTTTGACATGCATTTCATTATTTAGCGGAGTCACCTAGTGCAG	5490 fluorescence intensity (a.u.)
TTTAAATTTAGATTTGCATGTTTGTTTATTGGTTTATACCCGGAGTCACCTAGTGCAG	46200 fluorescence intensity (a.u.)
AATCGGATTAGATATAACATAATACTATAATCTGAACATGCGGAGTCACCTAGTGCAG	7180 fluorescence intensity (a.u.)
CGCGTGTGTGATTGCCTTTTGCTAGCCAAATTGTGGTTTTCGGAGTCACCTAGTGCAG	15000 fluorescence intensity (a.u.)
CTAATACTTAATTAATCACGCGCTAATAAACTACCTCGTTCGGAGTCACCTAGTGCAG	22300 fluorescence intensity (a.u.)
AATCATAACACACCTCAATCACTCCAATCTCAACCATAAGCGGAGTCACCTAGTGCAG	6210 fluorescence intensity (a.u.)
ATTTGACAAATAACTATTTGTCACCTCTATCTCAATGACACGGAGTCACCTAGTGCAG	6420 fluorescence intensity (a.u.)
CGATTTAAATTTTAAAATTTAAAGTTAAATTTTGAAAACTCGGAGTCACCTAGTGCAG	15400 fluorescence intensity (a.u.)
ATCATCATCAGTTTTATAATTATCCGAAGCAACAACAAACCGGAGTCACCTAGTGCAG	8500 fluorescence intensity (a.u.)
TGGAGAAAATTTGATATGATCAATCTTGACGGATAGCTCGCGGAGTCACCTAGTGCAG	8440 fluorescence intensity (a.u.)
GCTAATCATAGACTAATTAGACTCAAAAGATTAGTCTCGCCGGAGTCACCTAGTGCAG	52800 fluorescence intensity (a.u.)
GCTAATCATTATCTAAGATAAAGAGAGGCTGCTACCTGGACGGAGTCACCTAGTGCAG	5340 fluorescence intensity (a.u.)
CAGCGCCATCAATTATTTACCAATAGGGTTTGCTCTTAATCGGAGTCACCTAGTGCAG	3940 fluorescence intensity (a.u.)
TTTACTCAATTGACATTGGAGATGTTTATGAAATAATAGCCGGAGTCACCTAGTGCAG	3270 fluorescence intensity (a.u.)
ATATGTAATTATAATAATTTTCATTATTTACTCAATTAATCGGAGTCACCTAGTGCAG	21700 fluorescence intensity (a.u.)
